# Laboratory results taken from PubChem BioAssay AID360 (National Center for Advancing Translational Sciences (NCATS), 2006).
# Hit rate of the full screen: of about 48,000 compounds, about 550 (1.1%) were called active. Inconclusive results (about 4%) are left out. Cut-off read from the data, not from the text of the source: active = potency below about 15 µM; inconclusive = mostly about 16 µM to 33 µM; inactive = weaker than that. This is one part of the list.
# Target: Lysosomal acid glucosylceramidase (Homo sapiens) (UniProt P04062)
# UniProt P04062, sequence (P04062 whole entry, looked up): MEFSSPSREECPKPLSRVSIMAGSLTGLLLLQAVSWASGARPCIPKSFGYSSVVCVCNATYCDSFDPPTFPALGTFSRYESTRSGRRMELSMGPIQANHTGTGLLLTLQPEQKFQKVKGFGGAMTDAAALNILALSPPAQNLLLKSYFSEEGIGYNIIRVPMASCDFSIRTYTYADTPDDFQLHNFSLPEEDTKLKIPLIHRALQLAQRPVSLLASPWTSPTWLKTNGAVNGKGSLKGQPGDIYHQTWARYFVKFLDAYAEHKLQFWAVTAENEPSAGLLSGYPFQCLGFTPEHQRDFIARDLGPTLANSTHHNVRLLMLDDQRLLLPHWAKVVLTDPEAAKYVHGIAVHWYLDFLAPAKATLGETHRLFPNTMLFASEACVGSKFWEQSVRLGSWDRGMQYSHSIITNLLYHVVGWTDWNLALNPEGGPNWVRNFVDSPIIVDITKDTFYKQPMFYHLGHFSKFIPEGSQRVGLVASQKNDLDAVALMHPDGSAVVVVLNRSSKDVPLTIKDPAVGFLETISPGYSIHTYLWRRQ
# Test: Glucocerebrosidase;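 note: the screen sought inhibitors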
# Settings: purified enzyme, resorufin glucoside fluorescence (screen aimed at inhibitors), 20 min
# Outline: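 Wild-type enzyme at 0.2 nM final in 50mM citric acid/KH2PO4, 10mM sodium taurocholate, 0.01% tween-20, pH 5.9, with resorufin beta-D-glucopyranoside at 30 uM final. Compounds titrated, 20 min at RT, red fluorescence read; AC50 from titration.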
# Potency is the fitted concentration of half-maximal effect.
row,Compound,Potency
1,OC(COc1c(F)cc(Br)cc1F)CN1CCN(c2ccc(F)cc2)CC1 (stereo not drawn),inactive: > 76.9 µM
2,CC(C)CCOc1ccc(C(=O)O)cc1,inactive: > 76.9 µM
3,COCCNC(=O)c1nn(-c2cc(OC)cc(OC)c2)c(=O)c2ccccc12,inactive: > 76.9 µM
4,COc1ccc(C)cc1-n1nnnc1SCc1cc(=O)n2cc(C)ccc2n1,inactive: > 76.9 µM
5,CC(=O)NC1C(=O)SC1(C)C (stereo not drawn),inactive: > 76.9 µM
6,COc1ccc(C(=O)NCc2nnc(SCC(=O)N3CCC(C)CC3)o2)cc1OC,inactive: > 76.9 µM
7,Cc1cc(C(=O)OCC(=O)N2CCc3ccccc32)c(C)o1,inactive: > 76.9 µM
8,CC(C)n1c(SCC(=O)N2CCCC2)nc2c1c(=O)n(C)c(=O)n2C,inactive: > 76.9 µM
9,CCOC(=O)C1CCN(C(=O)C2(NC(=O)Nc3ccccc3Cl)CCCCC2)CC1,inactive: > 76.9 µM
10,Cc1ccccc1OCc1nc(-c2ccc(NC(=O)c3ccc4c(c3)OCO4)cc2)no1,inactive: > 76.9 µM
11,COc1cc(CN2CCN(C(=O)CC(C)C)CC2)cc(OC)c1O,inactive: > 76.9 µM
12,CC(C)c1nnc(N2C(=O)c3oc4ccccc4c(=O)c3C2c2ccco2)s1 (stereo not drawn),inactive: > 76.9 µM
13,Cc1noc(C)c1COc1ccc(C(=O)OCC(=O)N2CC3(C)CC2CC(C)(C)C3)cc1 (stereo not drawn),inactive: > 76.9 µM
14,Cc1n[nH]c(C)c1S(=O)(=O)N1CCCC(C(=O)Nc2nccs2)C1 (stereo not drawn),inactive: > 76.9 µM
15,CCOC(=O)c1ccc(COC(=O)CNC(=O)CNC(=O)c2ccc(OC)cc2)o1,inactive: > 76.9 µM
16,O=C(c1ccc(Cl)cc1)C1C2C(=O)N(c3ccccc3)C(=O)C2C2CCCN21 (stereo not drawn),inactive: > 76.9 µM
17,Cc1cccn2c(=O)c3cc(C(=O)N4CCc5ccccc5C4)n(C)c3nc12,inactive: > 76.9 µM
18,O=C(C1COc2ccccc2O1)N1CCN(c2ccc(F)cc2)CC1 (stereo not drawn),inactive: > 76.9 µM
19,CCOC(=O)C1=C(C)NC(=O)NC1c1ccc(Cl)cc1Cl (stereo not drawn),inactive: > 76.9 µM
20,CCCNC(=O)c1cc(S(=O)(=O)N2CCc3ccccc32)ccc1F,inactive: > 76.9 µM

row,Compound,Potency
1,O=P(O)(CP(=O)(c1ccccc1)c1ccccc1)c1ccccc1,inactive: > 76.9 µM
2,O=C(Nc1ncnc2sc3c(c12)CCCCC3)c1ccco1,inactive: > 76.9 µM
3,CC1CCCN(C(=O)c2cc(F)c(F)cc2Cl)C1 (stereo not drawn),inactive: > 76.9 µM
4,CN(CCNC(=O)C1CC(=O)N(c2ccc(F)c(Cl)c2)C1)Cc1ccccc1 (stereo not drawn),active: 15.4 µM
5,Cc1cc(C(=O)CSc2nnc(NCc3ccccc3)s2)c(C)n1C,inactive: > 76.9 µM
6,CCN(c1ccccc1)S(=O)(=O)c1ccc(F)cc1,inactive: > 76.9 µM
7,COc1cccc(C2=NOC(C(=O)NC(C)(C)C)C2)c1 (stereo not drawn),inactive: > 76.9 µM
8,Cc1csc(NC(=O)C2CCCN2C(=O)OCC(C)C)n1 (stereo not drawn),inactive: > 76.9 µM
9,CCN(CC)C(=O)c1n[nH]c(=O)c2ccccc12,inactive: > 76.9 µM
10,CCc1nc(C)ccc1OCC(=O)NCCCN(C)C,inactive: > 76.9 µM
11,COc1ccc(NC(=O)CSc2nnc(-c3cccs3)n2C)cc1OC,inactive: > 76.9 µM
12,O=C(CN1C(=O)c2cccc3cccc1c23)Nc1cccnc1,inactive: > 76.9 µM
13,Cc1nn(Cc2ccccc2)c(C)c1C(=O)Nc1ccc(N2CCOCC2)cc1,inactive: > 76.9 µM
14,COc1ccc(CCNS(=O)(=O)c2cccc(S(=O)(=O)N3CCCC3)c2)cc1OC,inactive: > 76.9 µM
15,COc1ccc(N2C(=O)CSC2c2cccc(F)c2)c(OC)c1 (stereo not drawn),inactive: > 76.9 µM
16,COc1cccc(OC)c1OCC(O)CN1CCN(c2ccccc2)CC1 (stereo not drawn),inactive: > 76.9 µM
17,O=C(Nc1ccon1)c1ccccc1Cl,inactive: > 76.9 µM
18,CCOC(=O)CNS(=O)(=O)c1ccc(C(=O)O)cc1,inactive: > 76.9 µM
19,CC(C)(C)NC(=O)CN(C(=O)CCN1CCCc2ccccc21)C(C)(C)C,inactive: > 76.9 µM
20,Cc1cc(SCC(=O)N2CCC(c3noc4ccc(F)cc34)CC2)nc2ccccc12,inactive: > 76.9 µM

row,Compound,Potency
1,O=C(CN(C(=O)CSc1nnc(COc2ccccc2)o1)c1ccc(F)cc1)NC1CCCCC1,inactive: > 76.9 µM
2,Fc1cccc2sc(N3CCCCC3)nc12,inactive: > 76.9 µM
3,COc1ccc(-c2nnc(CSc3ncnc4sc5c(c34)CCC5)o2)cc1OC,inactive: > 76.9 µM
4,N#Cc1nc(-c2cccs2)oc1NCC1CCCO1 (stereo not drawn),inactive: > 76.9 µM
5,COC(=O)C1C2C=CC3(CN(CCc4ccccc4)C(=O)C13)O2 (stereo not drawn),inactive: > 76.9 µM
6,CCOc1ccc(OCC)c(NC(=O)C(NS(=O)(=O)c2ccc3c(c2)oc(=O)n3C)C(C)C)c1 (stereo not drawn),inactive: > 76.9 µM
7,CCn1cc(S(=O)(=O)CC(=O)NC2CCCCC2)c2ccccc21,inactive: > 76.9 µM
8,Cc1ccc(C)c(C(=O)CSc2n[nH]c(C(C)C)n2)c1,inactive: > 76.9 µM
9,CCSc1nnc(NC(=O)C(CC)Oc2ccccc2)s1 (stereo not drawn),inactive: > 76.9 µM
10,COc1cccc(C2C(C#N)=C(N)Oc3cc(C)n(Cc4ccco4)c(=O)c32)c1 (stereo not drawn),inactive: > 76.9 µM
11,O=C(O)c1cc(S(=O)(=O)NCC2CCCO2)ccc1Cl (stereo not drawn),inactive: > 76.9 µM
12,CCc1ccc(CNC(=O)CN2C(=O)COc3ccccc32)cc1,inactive: > 76.9 µM
13,O=C(Nc1nc2ccc(S(=O)(=O)N3CCCC3)cc2s1)C1CCCO1 (stereo not drawn),inactive: > 76.9 µM
14,COCCn1nnnc1C(c1ccccc1OC)N1CCc2ccccc2C1 (stereo not drawn),inactive: > 76.9 µM
15,COc1ccc(C(=O)NC(=O)N2CCCCC2)cc1,inactive: > 76.9 µM
16,O=S(=O)(c1cccc(-c2csc(-c3cccnc3)n2)c1)N1CCCCC1,inactive: > 76.9 µM
17,COCCn1nnnc1CN(Cc1cccnc1)Cc1cc2cc(OC)ccc2[nH]c1=O,inactive: > 76.9 µM
18,COc1ccc(C2CCCN2C(=O)Nc2cccc(C(C)=O)c2)cc1OC (stereo not drawn),inactive: > 76.9 µM
